# Measured values from PMC4336329 (PLoS ONE, 2015).
# Among all 310,000 compounds or so, about 14,000 (4.5%) showed an effect of 50% or more. The effect is printed as a negative number. The list shows a part of the results.
# Biological target: human ether-à-go-go-related gene (hERG) potassium channel (human, UniProt Q12809)
# Assay: primary screen, population patch clamp on CHO cells stably expressing hERG
# 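Further: peak tail current of the secondary pulse compared with the same well before compound.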
# Sequence of human ether-à-go-go-related gene (hERG) potassium channel (Q12809 whole entry, looked up): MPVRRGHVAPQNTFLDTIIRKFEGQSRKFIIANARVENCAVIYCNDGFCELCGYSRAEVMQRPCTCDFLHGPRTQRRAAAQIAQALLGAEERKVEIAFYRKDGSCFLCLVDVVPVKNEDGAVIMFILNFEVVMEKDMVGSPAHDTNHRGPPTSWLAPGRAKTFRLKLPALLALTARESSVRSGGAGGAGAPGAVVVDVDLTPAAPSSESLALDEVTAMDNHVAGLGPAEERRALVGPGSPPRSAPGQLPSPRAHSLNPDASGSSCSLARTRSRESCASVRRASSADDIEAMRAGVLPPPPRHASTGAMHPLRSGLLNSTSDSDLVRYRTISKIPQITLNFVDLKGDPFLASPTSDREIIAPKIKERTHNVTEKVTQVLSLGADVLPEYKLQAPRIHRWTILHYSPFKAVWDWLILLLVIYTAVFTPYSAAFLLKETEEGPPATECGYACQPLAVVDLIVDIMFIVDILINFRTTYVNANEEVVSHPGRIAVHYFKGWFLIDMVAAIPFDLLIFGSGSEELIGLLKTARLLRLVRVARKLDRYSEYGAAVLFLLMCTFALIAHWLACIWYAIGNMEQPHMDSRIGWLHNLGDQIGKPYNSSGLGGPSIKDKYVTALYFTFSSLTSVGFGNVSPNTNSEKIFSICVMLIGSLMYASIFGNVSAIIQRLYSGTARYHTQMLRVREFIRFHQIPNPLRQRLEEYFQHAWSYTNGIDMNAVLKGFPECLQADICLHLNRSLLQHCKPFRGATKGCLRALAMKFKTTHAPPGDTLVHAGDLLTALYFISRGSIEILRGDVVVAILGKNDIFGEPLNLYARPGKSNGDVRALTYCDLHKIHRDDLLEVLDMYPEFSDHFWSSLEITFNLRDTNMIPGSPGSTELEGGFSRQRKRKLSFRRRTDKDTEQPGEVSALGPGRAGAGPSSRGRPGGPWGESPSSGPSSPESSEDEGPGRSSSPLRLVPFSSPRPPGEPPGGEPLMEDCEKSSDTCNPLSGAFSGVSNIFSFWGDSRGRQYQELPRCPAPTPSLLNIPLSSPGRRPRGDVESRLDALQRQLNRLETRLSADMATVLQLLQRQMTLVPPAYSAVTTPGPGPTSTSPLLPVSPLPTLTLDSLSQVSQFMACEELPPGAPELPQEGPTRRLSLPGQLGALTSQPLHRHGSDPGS
row,Structure (SMILES),"hERG current change (%, negative = inhibition) at 10uM [%]"
1,O=C(NC(=S)Nc1ccccc1C(=O)O)c1cncc(Br)c1,23
2,Cc1cc(C)cc(N(CC(=O)NCCSc2ccccn2)S(=O)(=O)c2ccccc2)c1,-33.2
3,COc1ccc(-c2oc3ncn(CCN4CCOCC4)c(=N)c3c2-c2ccc(OC)cc2)cc1,-70.3
4,Cc1cc(C)c(NC(=O)CSc2nnc(-c3ccccn3)n2N)c(Cl)c1,-1.42
5,Cc1ccc(NC(=O)CN(C)C(=O)c2cc3c(s2)CCCCC3)cc1,2.74
6,CCOCCCNC(=O)c1cn(CC)c2ccc(S(=O)(=O)N3CCC(C)CC3)cc2c1=O,-22.6
7,O=C(O)c1ccc(/C=N/N2CCN(Cc3cccc4ccccc34)CC2)cc1,14.6
8,COc1ccc(C2=NOC3(CC(=O)N(c4ccc5ccccc5c4)C3=O)C2)c(OC)c1 (centres unmarked),10
9,Cc1c(C(=O)N(C)CCCCN2CCOCC2)oc2c(F)cccc12,4.14
10,CC(=O)Nc1cccc(NC(=O)Cc2ccc3ccccc3c2)c1,-2.03
11,O=C(NCc1c(Cl)cccc1Cl)c1ccc2nnsc2c1,8.96
12,O=C1CCCCC1C(Nc1ccc(Cl)cc1)c1ccccc1 (centres unmarked),5.67
13,O=C(CSCc1ccc(Cl)cc1)Nc1ccc2c(c1)OCCO2,-20.3
14,CCN1CCN(CCc2nc3cc(NC(=O)COc4ccccc4)ccc3n2C)CC1,-49.8
15,O=C(O)CSCc1nc2ccccc2[nH]1,19.3
16,COC(=O)c1ccccc1S(=O)(=O)N1CCC(C(=O)OC(C)C(=O)Nc2ccccc2OC)CC1 (centres unmarked),-51.3
17,O=C(Nc1ncc(S(=O)(=O)c2ccc([N+](=O)[O-])cc2)s1)c1cccnc1,-2.29
18,COc1ccc2c(c1)c(=O)c(C(=O)c1ccccc1)cn2Cc1ccccc1,-71.8
19,CCN(c1ccc(OC)cc1)S(=O)(=O)c1nnc(NC(=O)C2CCCCC2)s1,12.2
20,COc1nc(-c2ccc(Cl)cc2)ccc1-c1noc(-c2ccco2)n1,16.8
21,COc1cccc(NS(=O)(=O)c2cc3c(cc2C)N(C(C)=O)CCO3)c1,5.83
22,Clc1cc2c(c(CSc3nc4ccccc4n4cccc34)c1)OCOC2,19.4
23,NS(=O)(=O)c1ccc(CCNC(=S)Nc2ccc(F)cc2)cc1,6.41

row,Structure (SMILES),"hERG current change (%, negative = inhibition) at 10uM [%]"
1,CN(C)CCn1c(NCc2ccc3c(c2)OCO3)nc2ccccc21.Cl,-59.5
2,CCNCCNC(=O)c1c(O)c2c([nH]c1=O)CCCC2,8.43
3,Cc1ccccc1NC(=O)Cc1nc(COC(=O)c2ccc(O)cc2O)cs1,-5.83
4,Cc1cc2cc(CCNS(=O)(=O)c3ccc(F)cc3)c(=O)[nH]c2cc1C,5.91
5,CC(C)S(=O)(=O)c1cnc(-c2cccnc2)nc1N,12.6
6,C/C(=N\NC(=O)NC1CCCCC1)C1CCCCC1,4.01
7,COC(=O)CSc1nnc(NC(=O)C2CC(=O)N(c3ccc(F)cc3)C2)s1 (centres unmarked),11.8
8,CCOc1ccc(-c2nnn(CC(=O)NCc3cccs3)n2)cc1,1.14
9,CC(C)(C)c1ccc(C(=O)OCC(=O)N2CCC(c3ccccc3)=N2)cc1,-5.9
10,O=C(c1ccccc1)c1n[nH]c(-c2ccccc2)cc1=O,30.9
11,CC(C)(C)C(=O)Nc1nc2c(s1)COc1ccccc1-2,-30.9
12,COc1ccc(C(=O)NCC(=O)NC2=NCCS2)cc1,9.41
13,CCOC(=O)C1CCCN(S(=O)(=O)c2ccc(Cl)nc2)C1 (centres unmarked),-10
14,COc1ccc(/C=N/NC2=NCCCCC2)cc1,-43.7
15,O=C(Cn1cnc2c(nnn2Cc2ccccc2)c1=O)N1CCCc2ccccc21,3.38
16,Cl.Nc1scc(-c2ccncc2)c1Cl,-7.37
17,COc1ccccc1CCNC(=O)C(=O)NCC1OCCN1S(=O)(=O)c1cccs1 (centres unmarked),-1.48
18,CC(C)(C)NC(=O)C(c1ccncc1)N(CC1CCCO1)C(=O)Cn1nnc(-c2ccc(F)cc2)n1 (centres unmarked),-3.33
19,CCSc1ncc(/C=N/Nc2ccc(Cl)cc2)n1C,-10.2
20,O=C(CN(C(=O)c1csnn1)c1cccc2ccccc12)NCc1ccccc1,0.271
21,O=C(OCc1nc2scc(-c3ccccc3)c2c(=O)[nH]1)c1ccco1,-21.7
22,COc1ccc(NC(=O)CN(C)C(=O)CN2C(=O)NC3(CCCC3)C2=O)cc1,-0.152
23,CCCCCCOc1ccc(N2C(=O)CC(NCCc3ccc(S(N)(=O)=O)cc3)C2=O)cc1 (centres unmarked),14.1

row,Structure (SMILES),"hERG current change (%, negative = inhibition) at 10uM [%]"
1,CCNS(=O)(=O)c1ccc(NC(=O)Nc2ccccc2OC)cc1,1.05
2,COc1ccc(/C=N/Nc2nc(-c3cccnc3)nc3ccccc23)c(OC)c1,7.71
3,O=C(Cn1cnc([N+](=O)[O-])n1)NCCc1ccccc1,12.9
4,C=C1CC2C(CCC3(C)C2CCC3(O)C(C)=O)C2(C)CCC(=O)C=C12 (centres unmarked),23.3
5,C=C1CC[C@@]2(O)[C@H]3Cc4ccc(O)c5c4[C@@]2(CCN3CC2CC2)[C@H]1O5,-2.73
6,CN(CC(O)COc1ccc(S(=O)(=O)N2CCOCC2)cc1)C1CCCCC1 (centres unmarked),-6.74
7,COCCNS(=O)(=O)c1cc(C(=O)O)ccc1OC,15.9
8,CCOC(=O)c1[nH]cnc1C(=O)Nc1ccccc1OC,-2.79
9,Cc1cccc2c(-c3ccccc3)cc(=O)[nH]c12,-10.1
10,O=C(CC(c1ccccc1)c1ccccc1O)NCCN1CCOCC1 (centres unmarked),3.63
11,N/C(=N\OC(=O)CCCc1ccccc1)c1ccc(Br)cc1,14.5
12,C=CCOC(=O)C1=C(C)OC(N)=C(C#N)C1c1ccc(OC)c(CSc2ccccn2)c1 (centres unmarked),-0.628
13,O=C(CCCC(=O)OCC(=O)c1ccc(Cl)cc1Cl)Nc1cc(C(F)(F)F)ccc1Cl,-3.09
14,O=C1C(=O)N(CCCO)C(c2ccccc2)/C1=C(\O)c1ccc(Br)cc1 (centres unmarked),16.7
15,O=C1NC(=O)N(Cc2ccco2)C(=O)/C1=C\c1ccc(-c2ccc(F)cc2)o1,29.3
16,CCOC(=O)c1ccc(NC(=O)CN2C(=O)C3C4C=CC(C4)C3C2=O)cc1 (centres unmarked),2.3
17,O=C(O)CCS(=O)(=O)c1ccc(-c2ccccc2)cc1,19.3
18,COc1ccc(NC(=O)C2CCCN(S(=O)(=O)c3ccccc3)C2)c(OC)c1 (centres unmarked),-19.6
19,O=C(COc1ccc(Cl)cc1Cl)NC(=O)N1CCOCC1,-12.8
20,O=C(Cc1csc(Nc2nc(=S)[nH]c3ccccc23)n1)NCCCN1CCN(c2cccc(Cl)c2)CC1,5.03
21,O=C(CSc1nnc(C2CCCCC2)n1Cc1ccccc1)NCc1ccco1,-25.8
22,CC(=O)c1ccc(NC(=O)c2ccn(C(=O)OCC(C)C)n2)cc1,-10.1
23,c1ccc2c(c1)ccc1nnc(-c3ccc4c(c3)OCO4)n12,3.86

row,Structure (SMILES),"hERG current change (%, negative = inhibition) at 10uM [%]"
1,CC(=O)N1CN2CN(C(C)=O)CC(C(=O)c3ccc(Br)cc3)(C2)C1,-5.51
2,O=C(CCN1CCOCC1)N/N=C/c1cc(Br)cc(Br)c1O,6.51
3,Cc1ccc(C(=O)NNC(=O)CSc2nnc(C(C)C)n2C)cc1,20.9
4,O=C(CCc1ccccc1)Nc1ccccc1C(=O)NCc1ccco1,0.64
5,CC(C)(C)c1nc(CN2CCOCC2)ccc1O.Cl,-15.2
6,O=C(Nc1ccc2ccccc2c1)c1ccc(Cl)cc1,22.9
7,COc1ccccc1CC(=O)NNS(=O)(=O)c1ccc([N+](=O)[O-])cc1,14.5
8,O=C(COC(=O)c1cccs1)NCCCc1ccccc1,6.2
9,CC(=Nc1ccc(C)c(C)c1)C1=C(O)CSC1=O,13.6
10,COCCC(=O)N1CCC(Oc2ccc(C(=O)N(C)CCCC3CCCC3)cc2)CC1,-30.4
11,O=C(CN1C2=NCCCN2c2ccccc21)c1cccs1,-18.4
12,CC(C)C12CN3CC(C(C)C)(CN(C1)C3c1ccccc1O)C2=O (centres unmarked),-0.361
13,COc1ccccc1N=CC1=C(O)CC(c2ccccc2)CC1=O (centres unmarked),14.1
14,CCCc1n(CC(O)COCc2ccccc2)c2ccccc2[n+]1C.[I-] (centres unmarked),3.92
15,Oc1[nH]c2ccc(Br)cc2c1N=Nc1ccc(C(F)(F)F)cn1,13.6
16,O=C(Cn1cc[n+](CC(=O)c2ccc(Cl)cc2Cl)c1)c1ccc(Cl)cc1Cl.[Br-],-61.5
17,COc1ccc(CNc2oc(-c3ccccc3)nc2C#N)cc1,-3.26
18,CN(C)CCCNc1cn[nH]c(=O)c1Cl,-4.97
19,COc1cccc(C(=O)N2CCN(S(C)(=O)=O)CC2)c1,9.24
20,CCN(C(=O)COC(=O)c1oc2ccccc2c1C)c1c(N)n(Cc2ccccc2)c(=O)[nH]c1=O,15.7
